Data reported in PMC4336329 (PLoS ONE, 2015).
The whole screen tested about 310,000 compounds, of which about 14,000 (4.5%) showed an effect of 50% or more. The effect is printed as a negative number. The list shows a part of the results.

target: human ether-à-go-go-related gene (hERG) potassium channel (human, UniProt Q12809); experiment: primary screen, population patch clamp on CHO cells stably expressing hERG
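Note: peak tail current of the secondary pulse compared with the same well before compound.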

Sequence of human ether-à-go-go-related gene (hERG) potassium channel (Q12809 whole entry, looked up): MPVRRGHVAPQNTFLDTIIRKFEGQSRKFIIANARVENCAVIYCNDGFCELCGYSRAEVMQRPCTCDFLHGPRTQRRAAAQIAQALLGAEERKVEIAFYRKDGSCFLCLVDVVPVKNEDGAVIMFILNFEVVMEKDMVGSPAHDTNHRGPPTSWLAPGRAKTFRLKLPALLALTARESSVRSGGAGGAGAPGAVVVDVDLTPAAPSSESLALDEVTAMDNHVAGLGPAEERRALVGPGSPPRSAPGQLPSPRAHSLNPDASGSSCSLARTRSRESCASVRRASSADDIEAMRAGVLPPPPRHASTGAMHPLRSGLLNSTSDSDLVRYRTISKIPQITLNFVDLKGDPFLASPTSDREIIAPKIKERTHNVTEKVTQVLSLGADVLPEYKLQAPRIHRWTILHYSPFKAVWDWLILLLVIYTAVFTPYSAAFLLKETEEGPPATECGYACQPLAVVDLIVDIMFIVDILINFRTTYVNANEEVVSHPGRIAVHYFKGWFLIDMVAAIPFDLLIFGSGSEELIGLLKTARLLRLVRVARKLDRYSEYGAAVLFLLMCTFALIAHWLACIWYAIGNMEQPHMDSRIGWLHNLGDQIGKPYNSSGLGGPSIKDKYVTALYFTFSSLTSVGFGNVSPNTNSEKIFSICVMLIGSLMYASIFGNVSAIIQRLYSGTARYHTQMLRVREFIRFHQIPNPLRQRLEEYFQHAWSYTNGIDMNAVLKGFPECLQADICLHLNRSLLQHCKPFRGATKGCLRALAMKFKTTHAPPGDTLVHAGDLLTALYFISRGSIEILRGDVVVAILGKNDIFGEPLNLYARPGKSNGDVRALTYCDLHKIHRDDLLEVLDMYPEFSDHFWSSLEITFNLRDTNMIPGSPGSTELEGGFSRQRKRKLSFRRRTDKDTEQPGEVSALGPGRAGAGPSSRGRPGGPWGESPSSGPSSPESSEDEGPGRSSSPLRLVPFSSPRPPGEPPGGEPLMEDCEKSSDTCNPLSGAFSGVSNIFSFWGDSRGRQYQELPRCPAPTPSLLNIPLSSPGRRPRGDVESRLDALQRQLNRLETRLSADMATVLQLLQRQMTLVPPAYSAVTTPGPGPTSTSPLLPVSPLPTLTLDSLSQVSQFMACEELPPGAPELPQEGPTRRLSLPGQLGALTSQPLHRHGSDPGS

Row | Structure (SMILES) | hERG current change (%, negative = inhibition) at 10uM
1 | CC(NC(=O)c1cccs1)C(c1cccs1)N1CCOCC1 (centres unmarked) | 11.8%
2 | CCOC(=O)c1c(CCl)nc2ccccc2c1C.Cl | 31.5%
3 | O=C(Nc1ccccn1)c1cc(-c2cccc(Cl)c2)nc2ccccc12 | 13.3%
4 | C=CCN1C(=O)/C(=C2/Sc3ccccc3N2C)SC1=Nc1c(C)n[nH]c1C | -3.99%
5 | CCn1nc(C)c(CNC(=O)C2CCC(=O)N(Cc3cccc(F)c3)C2)c1C (centres unmarked) | 15%
6 | Cc1nonc1NC(=O)CSc1nc2cc(Cl)ccc2c2c1CCCC2 | 2.15%
7 | Oc1ccc(C=NCCc2ccccc2)cc1 | 10.2%
8 | CCCCCCC(=O)N/N=C/c1ccco1 | -21.9%
9 | CCCCn1c(=O)[nH]c(=O)c2c1nc(-c1ccc(-c3ccccc3Br)o1)n2CCOC | -2.63%
10 | CCc1ccccc1NC(=O)c1cc(C2CC2)on1 | -24.9%
11 | O=C1Nc2ccccc2C1C(C[N+](=O)[O-])c1ccccn1 (centres unmarked) | 20.3%
12 | CCOC(=O)C1(Nc2nccs2)Sc2ccccc2NC1=O (centres unmarked) | -9.73%
13 | COc1ccc(Cl)c(Cn2c(NCc3ccco3)nc3c2c(=O)n(C)c(=O)n3C)c1 | 0.592%
14 | N#Cc1nc(COc2ccccc2)oc1N1CCN(Cc2ccccc2)CC1 | -21.9%
15 | Cc1cc(C(=O)NCC(=O)Nc2c(C)cccc2C)c2ccccc2n1 | 8.37%
16 | C=CC[n+]1c(-c2ccccc2)csc1NC(C)(C)C.[Br-] | -6.95%
17 | CCOc1ccccc1NC(=O)CSc1nnc2c(CC)c(C)nc(N)n12 | 4.35%
18 | CC(C)CC(=O)Nc1ccc(C(=O)NNC(=O)C(c2ccccc2)c2ccccc2)cc1 | 18.7%
19 | CCCCCCn1c(=O)[nH]c2nc3cc(N)ccc3nc2c1=O | -7.9%
20 | CCC(C)C(NC(=O)c1ccc(Cl)cc1Cl)C(=O)O (centres unmarked) | 14.3%
21 | O=C(C(=O)N1CCOCC1)c1cn(Cc2c(F)cccc2Cl)c2ccccc12 | 22.1%
22 | O=C(NCc1ccc2c(c1)OCO2)c1nc(Cn2cc([N+](=O)[O-])cn2)no1 | -33.2%

Row | Structure (SMILES) | hERG current change (%, negative = inhibition) at 10uM
23 | COc1ccc(CCNC(=O)CN(c2cccc([N+](=O)[O-])c2)S(C)(=O)=O)cc1OC | 30.9%
24 | CC(NC(=O)CCCCCN1C(=O)c2ccccc2C1=O)c1ccc2c(c1)CCCC2 (centres unmarked) | -17.5%
25 | CSc1nc2ccc(S(=O)(=O)N3CCOCC3)cc2s1 | 1.63%
26 | CCOC(=O)CON1C(=O)C(=O)N(OCC(=O)OCC)C2CCCCC21 (centres unmarked) | 11.7%
27 | CC(OC(=O)c1n[nH]c2ccccc12)C(=O)Nc1ccccc1[N+](=O)[O-] (centres unmarked) | 3.73%
28 | COc1ccc2nc(NC(=O)CCNS(=O)(=O)c3ccc4c(c3)oc(=O)n4C)sc2c1 | -5.68%
29 | Cc1cccc(C)c1Nc1c(-c2ccc(N3CCOCC3)cc2)nc2cnccn12 | -8.65%
30 | Clc1ccc2oc(-c3cccnc3NCc3ccccc3)nc2c1 | -15.3%
31 | O=C(Nc1cc(S(=O)(=O)N2CCOCC2)ccc1-n1cncn1)c1ccc(Cl)cc1 | -50.4%
32 | O=C(NCC1CCCO1)Nc1ccccc1 (centres unmarked) | -1.34%
33 | COc1ccc(N2CCN(CC(=O)c3ccc(O)c(C)c3O)CC2)cc1 | 16.7%
34 | COc1cc(/C=N/O)cc(Br)c1OCc1cccc(Cl)c1 | 5.34%
35 | Cc1cc(C)nc(NS(=O)(=O)c2ccc(NC(=O)CN3C(=O)c4ccccc4C3=O)cc2)n1 | 5.38%
36 | O=C(Nc1cccc([N+](=O)[O-])c1)C(=O)N1CCCCC1 | 9.35%
37 | COc1cc(NC(=O)CN(C)CCOc2ccccc2)c(C)cc1[N+](=O)[O-] | -15.7%
38 | COC(=O)c1cc(OC)c(OC)cc1NC(=O)CN1CCOCC1 | -1.45%
39 | O=[N+]([O-])c1ccccc1CSc1nnc2ccccn12 | -0.991%
40 | COc1ccc(-c2cc(C)no2)cc1S(=O)(=O)NCCc1ccco1 | -16.2%
41 | COc1cccc(C2c3[nH]c4ccccc4c3C[C@H]3C(=O)N(c4ccccc4C(=O)N4CCC(C(=O)O)CC4)C(=O)N23)c1 (some centres unmarked) | 1.79%
42 | CC(=O)C1=C(O)C(=O)N(CCc2c[nH]c3ccccc23)C1c1ccco1 (centres unmarked) | 6.71%
43 | Fc1ccccc1/C=N/Nc1nc(-c2ccccn2)nc2ccccc12 | 14.9%
44 | COc1cc(Br)cc(/C=C/c2ccc3cccc(O)c3n2)c1O | 19.5%

Row | Structure (SMILES) | hERG current change (%, negative = inhibition) at 10uM
45 | CS(=O)(=O)N(CC(=O)N1CCN(c2ccccc2)CC1)c1cc(C(F)(F)F)ccc1Cl | -25.4%
46 | CC(C)C[C@H](NC(=O)N1CC(=O)Nc2ccccc21)C(=O)N[C@@H](Cc1ccccc1)C(=O)O | 13.2%
47 | O=c1c2ccccc2nc(C[n+]2ccccc2)n1-c1cccc(C(F)(F)F)c1.[Br-] | 13.1%
48 | Cn1c(NCCCO)nc2c1c(=O)n(Cc1ccccc1F)c(=O)n2C | 2.95%
49 | Cc1n[nH]c(C)c1CCNC(=O)C1CCC(=O)N(CCc2cccc(F)c2)C1 (centres unmarked) | 9.63%
50 | COc1ccc(Cn2c(O)c(C=NCCCn3ccnc3)c(=O)[nH]c2=O)cc1 | 0.947%
51 | COc1ccc(S(=O)(=O)Nc2cc(OC)c(NC(=O)c3ccco3)cc2OC)cc1 | -21.3%
52 | O=S(=O)(c1ccc(Cl)cc1)N1CCN(C(=S)NCC2CCCO2)CC1 (centres unmarked) | -34.7%
53 | COc1cccc(CCc2nnc(CCC(=O)N3CCCC3c3nccs3)o2)c1 (centres unmarked) | 16%
54 | CNC(=O)c1ccc(NC(=O)Nc2ccccc2)cc1 | 12.9%
55 | COc1ccc(-c2ccc(CCC(=O)O)n2NC(=O)c2ccc(O)cc2)cc1 | 9.63%
56 | COc1cc(C(=O)NNC(=O)c2ccc(S(=O)(=O)N3CCCCC3)cc2)cc(OC)c1OC | -17%
57 | CN(C)CCN(C(=O)CCS(=O)(=O)c1ccccc1)c1nc2c(F)cccc2s1 | 13.6%
58 | O=C(NCCc1cccs1)C1CC(c2ccccc2[N+](=O)[O-])=NO1 (centres unmarked) | -16.3%
59 | O=C(CSc1ncnc2c1nnn2Cc1ccc(F)cc1)NC1CCCCC1 | 11.8%
60 | Cc1cc(C(=O)N=Nc2c(O)n(C(C)C)c3ccccc23)n[nH]1 | -21.6%
61 | Cc1ccc(C(=O)CCC(=O)Nc2cccc(C)c2)cc1 | 15.3%
62 | COc1ccccc1NC(=O)CSc1nnc(-c2ccccn2)n1Cc1ccco1 | -9.97%
63 | COC(=O)CSc1nnc(-c2ccco2)o1 | 8.13%
64 | CCOc1cc(CNc2ncn[nH]2)ccc1OCC(=O)NC(C)(C)C | 5.22%
65 | CCOc1ccc(-c2csc(NC(=O)CSCC(=O)O)n2)c2ccccc12 | 0.0856%
66 | CCCCC(CC)CNC(=O)/C=C/c1ccc(F)cc1 (centres unmarked) | -10.8%

Row | Structure (SMILES) | hERG current change (%, negative = inhibition) at 10uM
67 | CC(=O)c1nn(-c2ccccc2)cc1C(=O)c1ccc(Br)cc1 | 30%
68 | COc1ccccc1OCC(=O)N1CCC2(CC1)CC(=O)c1ccccc1O2 | -40.2%
69 | O=C(COC(=O)C1(c2ccc(F)cc2)CCCC1)N1CCOCC1 | 3.09%
70 | N#Cc1ccccc1OCCCNC1CCCC1.O=C(O)C(=O)O | -11.5%
71 | CCc1ccccc1-n1c(SCC(=O)c2c(N)n(C3CC3)c(=O)[nH]c2=O)nnc1N1CCOCC1 | 8.13%
72 | Cc1cc(OCC(=O)Nc2ccccn2)c2c(C)c(C)c(=O)oc2c1 | 15.9%
73 | O=C(Nc1cc(C(F)(F)F)ccc1N1CCOCC1)c1ccc(Cl)nc1 | -20%
74 | Cc1cccc(C)c1OCC(=O)N(Cc1cccs1)C1CCS(=O)(=O)C1 (centres unmarked) | -8.04%
75 | COc1cc(SC)ccc1C(=O)N(C)CC(=O)Nc1cccc2ccccc12 | -4.21%
76 | C/C(=N\NS(=O)(=O)c1ccc(Cl)cc1)c1ccc(NC(=O)c2ccco2)cc1 | 14.5%
77 | CCc1cc2cc(C)cc(C)c2nc1SCC(=O)NNC(=O)c1ccco1 | 6.63%
78 | Cc1nc2ccccc2c2oc(C(=O)N3CCCC(C)C3)cc12 (centres unmarked) | -24.5%
79 | COc1ccc(NC(=O)c2cc(S(=O)(=O)N3CCc4ccccc43)cn2C)c(OC)c1 | -6.34%
80 | CC(=O)Nc1ccccc1OC(C)C(=O)N1CCC(C)CC1 (centres unmarked) | 19.4%
81 | COc1ccc(C(=O)Nc2ccc(Nc3ccccc3)cc2)cc1[N+](=O)[O-] | -37%
82 | NC(=O)C1CCN(C(=O)/C=C/c2cccc(Br)c2)CC1 | 1.61%
83 | COCCn1c(SCC(=O)Nc2ccc(C(C)=O)cc2)nc2c([nH]c3ccccc32)c1=O | 1.97%
84 | COC(=O)c1ccc(CNC(=O)c2cc3ccccc3oc2=O)cc1 | 27.9%
85 | Cc1ccc(-c2cnc(SCCNC(=O)c3ccco3)[nH]2)cc1 | -24.9%
86 | COc1ccc(-c2nc(-c3ccc(NC(=O)c4ccncc4)cc3)no2)cc1OC | 7.54%
